Laboratory results: publication PMC12136788
This is one part of the list.

T1: UNK ZnF1-3 (human, UniProt Q9C0B0 31-174)
T1 sequence: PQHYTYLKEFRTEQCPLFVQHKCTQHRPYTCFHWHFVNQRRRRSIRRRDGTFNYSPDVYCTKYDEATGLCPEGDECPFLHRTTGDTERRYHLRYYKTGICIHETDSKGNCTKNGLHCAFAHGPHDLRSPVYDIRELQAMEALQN

B1: chr20:57484439:57484440:+_ENSG00000087460_ENST00000306090|hu_mus|FALSE|FALSE (ssRNA)
RNA: GGGAGUUCUACAGUCCGACGAUCGCCGCCCACAUCGAACAUGUGGAAGUUGACUUUGUCCACCUGGAACUUGGUCUCAAAGAUUCCAGAGGUCAGGACACGGCAGCGAAGCAGGUCCUGGUCACUUGGCACGUAGUCGGCCUGCAACAGAGGAUUGAGCAUCA
B2: chr16:57473197:57473198:-_ENSG00000005194_ENST00000569370|hu_mus|FALSE|FALSE (ssRNA)
RNA: GGGAGUUCUACAGUCCGACGAUCGAUCCGGGCCAUCUCAGCCAGAACCUCAGCACUGUGCAGAGAGGUGCUUCCUGGGACUACACCCGACAGAAUGACAUCGAAGCUGGAUUCCUUAUGCGAAGACUGCAACAGCUGGGUGACCAACAGAGGAUUGAGCAUCA
B3: chr4:140556289:140556290:+_ENSMUSG00000036622_ENSMUST00000037055|mus_mus|mus_mus_mus_hu_False|48_68 (ssRNA)
RNA: GGGAGUUCUACAGUCCGACGAUCGAUGGAGCUCACCAGGCCCCCUUUUGCCGUGCAGAACCCUGUGCGAGUCACCACUGCCAGGACACGGGGUCCCACAUAGGCCCGGGCCUGCAAGAUGAGGGUCCCGCAGAAGAGUGUGUGCAACAGAGGAUUGAGCAUCA
B4: 89273121_89273405_2348_CDS_ENSG00000065243_ENST00000370521|human|control|control (ssRNA)
RNA: GGGAGUUCUACAGUCCGACGAUCAAACAUCUCAUUUGUGUUUUUAUAUUCAGCUAAAAGCACCUUUCCAAAAUGUCCUCUUCCCAAGACAGCACAACACCUGAAAUCUUGUAGAUUAAACUGAAACCUUUGCUGAGAUCUUCUCAACAGAGGAUUGAGCAUCA
B5: chr15:63447868:63447869:-_ENSG00000185088_ENST00000411926|hu_mus|FALSE|FALSE (ssRNA)
RNA: GGGAGUUCUACAGUCCGACGAUCGCCUUCUGUGAGCCUGGCUUUUCCUCCUGUGGGCUGGCACAACACAGUUGAACAACCCACACAAAGAACCACAGUCUGUGCAUGGCUGAAAACUGUAGUAAUCUUGUAGCAACCUGGACACAACAGAGGAUUGAGCAUCA
B6: chr14:90871293:90871294:+_ENSG00000198668_ENST00000553542|hu_hu|FALSE|FALSE (ssRNA)
RNA: GGGAGUUCUACAGUCCGACGAUCUGUAUUAAUCAUUAGCAAAUGGAACUUUAAGGAGUCCUUAUCAUUAAGGUAGUACAAGUAUUUAUAUUGUAAAACUGAUGUGUAGCUUGAUCUUUAGGGGACAGGACCACCAACCAAUACCAACAGAGGAUUGAGCAUCA
B7: chr12:39756943:39756944:-_ENSG00000139116_ENST00000544797|hu_mus|hu_hu_hu_mus_False|68_108 (ssRNA)
RNA: GGGAGUUCUACAGUCCGACGAUCGGUUUGGCUAUUACCCCCAAGGGAAUCCUGCAAGAGUCUUGUCAGCUUGGAAUCUCUGUAAGGGACAUGGGUGGCUCUCUUGCUCUUGUCCCCCAAGGCGCUGAUUACAUUCCCAAGAGCCAACAGAGGAUUGAGCAUCA
B8: 41762567_41763466_1074_CDS_ENSG00000137815_ENST00000389629|human|control|control (ssRNA)
RNA: GGGAGUUCUACAGUCCGACGAUCGUGACACCAGCGUUCUAGCUUAUGCCGUGAUAAUCGAACCCGAUUCAAUUCUUCAGGUAAGGAAACUGGUUGGGAUUUGGGAGGGAUCUCUUCUUUCUCCUCUUCUUCAUCAGACGAUGACAACAGAGGAUUGAGCAUCA
B9: chr7:56126341:56126342:+_ENSG00000146731_ENST00000540286|hu_mus|hu_hu_hu_mus_True|8_108 (ssRNA)
RNA: GGGAGUUCUACAGUCCGACGAUCCAUAUUUCUCCUUUUGGCUCUGCGCAGAGCUACGAUCCCUUCUUUCGCAAGGGCAUCUAAGGAAAAGGGGUCAAUCCCCUUUUGAUUAAUAACGACAAAUCCUUUAUCUGAAUCACCACACAACAGAGGAUUGAGCAUCA
B10: chr7:125984895:125984896:+_ENSMUSG00000030982_ENSMUST00000106553|mus_mus|FALSE|FALSE (ssRNA)
RNA: GGGAGUUCUACAGUCCGACGAUCGUAGAAGGCAAGAGCUUAAAACCAAUCUGUAUAAAAGUAAAAAUAACAAAAACUUCUAAAUUCCAGGAAGAGUUAAUGGCAGCCAAGCAGAUCUUCCAGGAUGUGGCACUGGGACUCCCGCAACAGAGGAUUGAGCAUCA
B11: chr2:177202359:177202360:+_ENSG00000128654_ENST00000249442|hu_hu|motif|central (ssRNA)
RNA: GGGAGUUCUACAGUCCGACGAUCCAUUCAAGUAAAACAUAUUUCAAAAGUUAAGACUCCUGAGACUAACACAUAACUCGGUGACAGCCUGCCUUUACCACGAUCUUCAAAAUAGUGCUGUUCAAUUCUCCUACAGAAAGCAAGCAACAGAGGAUUGAGCAUCA
B12: chrX:71549400:71549401:+_ENSMUSG00000019087_ENSMUST00000019231|mus_hu|mus_mus_mus_hu_False|18_28 (ssRNA)
RNA: GGGAGUUCUACAGUCCGACGAUCGCAGUAGGAAGAGGGAAGCUCUUCAGUCCAGUGCGCUGCAGGGUGGGAAAGCAACAACACGGACACCGUCCCACCCUCAACCCUCUCAGGUGUAUGUCACACAACAAUCUGGGUCAAAGACAACAGAGGAUUGAGCAUCA
B13: 25565639_25568521_1711_CDS_ENSG00000170558_ENST00000399380|human|control|control (ssRNA)
RNA: GGGAGUUCUACAGUCCGACGAUCCUCUUGAGGUAACACUUGAGGGGCAUUGUCAUUAAUAUCAAGUAAAUAGAUCUGCAGCGUUCCUGUUCCACUCAUAGGAGGAAUUCCAUUGUCAGAAGCAAGGAAAGUAGCAUUAUAUAUCAACAGAGGAUUGAGCAUCA
B14: 55414891_55415011_8049_CDS_ENSMUSG00000021488_ENSMUST00000099490|mouse|control|control (ssRNA)
RNA: GGGAGUUCUACAGUCCGACGAUCGUCUUGCCCUCUUCCAAGAGACCAGCAAGUUUGUGCCAAAGUUUGUGUGCCCCCAGCAGACCAGCAAGCCUGGGCUAGUGUUUGUCCAGCAACUAUAGGCCAAAGCCCUGCCCCUGGUGACAACAGAGGAUUGAGCAUCA
B15: chr6:38652254:38652255:-_ENSG00000124767_ENST00000373365|hu_hu|hu_hu_hu_mus_False|58_88 (ssRNA)
RNA: GGGAGUUCUACAGUCCGACGAUCCGAGAACUUCAUAGCAGGGAAGUCACAUUUUUGCAGGAGGGUCAGUCCAAGAACUCUAGUAUAAAAAUCCAGGGACUUCUUAGGAUCCUUAAUUCUUAGCAUCGUUUGCUGCAGUAGAAACAACAGAGGAUUGAGCAUCA
B16: chr11:100879890:100879891:+_ENSMUSG00000019302_ENSMUST00000044721|mus_mus|FALSE|FALSE (ssRNA)
RNA: GGGAGUUCUACAGUCCGACGAUCCUGGAAAACAUUCACAUCUGGAUUUAAAUCCCGAAAUUGGACCUUCCCAAGCUCUCCUAAUUCACUGACACAGCAAUAAGCAGCUUCAGACUGUAGAAAUAGCUGGGCCAGCGUCAUCUCCAACAGAGGAUUGAGCAUCA
B17: chr5:177632888:177632889:+_ENSG00000197451_ENST00000358344|hu_hu|motif|central (ssRNA)
RNA: GGGAGUUCUACAGUCCGACGAUCUAUUGUACAGUCAACGACCUCUCCAAAUUUAGUAAAAUAGUCUUUUAAAUCUUUUUUGCGGGUAUCCCAGCUCAGGCCACCAACGAACAUUUUUCCCGCGUCCUCCUCGUUCUUGCUGGCCAACAGAGGAUUGAGCAUCA
B18: chr3:150459880:150459881:-_ENSG00000181788_ENST00000312960|hu_mus|FALSE|FALSE (ssRNA)
RNA: GGGAGUUCUACAGUCCGACGAUCGGAAGAUGUACUGAAUAAAACAUCUAUUAAAAAACCUUUAUUAAACAUAGAGCGCUAUGCCCAAAUAACUUCCCAGGGUUAGGAAAGCCUCCUGGAGCCUCACUGACAGCAUGUAGAUAUCAACAGAGGAUUGAGCAUCA
B19: 47748213_47748333_168_3pUTR_ENSMUSG00000023988_ENSMUST00000024783|mouse|control|control (ssRNA)
RNA: GGGAGUUCUACAGUCCGACGAUCGCCACUGAGAGAUCACAGUGCCCCCCAGCGUUAGGAGGCCGGAAGUUCCUCAUCUAUUACUCUCAGGAAGAGCUUCGGGACCUAUAGCAGGAGCCCCCAAAUUCUCAGGUAAUCUCAUUACAACAGAGGAUUGAGCAUCA
B20: chrX:140365796:140365797:-_ENSMUSG00000031285_ENSMUST00000033642|mus_mus|mus_mus_mus_hu_False|8_78 (ssRNA)
RNA: GGGAGUUCUACAGUCCGACGAUCCUUCUCAUUACUCAGUGCCUGCAAGGUUCUGGUUCUGUAGAAGCUACAGUGGGCGCUGUGAGUGGGGCUAGGCAACCCAUUCAUCCGGGAGCCUCGCAUGUUCCUAGAUGCUUUAUCUCUCAACAGAGGAUUGAGCAUCA
B21: 51264051_51265094_2089_3pUTR_ENSMUSG00000063273_ENSMUST00000029303|mouse|control|control (ssRNA)
RNA: GGGAGUUCUACAGUCCGACGAUCAUUUUUUUUCUCUUCUUCUAUCUGGGCUUUCUUUUGAGCUCUUCUUUGUUUAUUACGCAGUUUCUUUAGCUCUUUGUCAGACAUGUUUGCUGUAUCAGCCUCGUGUUCUUUGUUCUCAUCCAACAGAGGAUUGAGCAUCA
B22: 115928876_115943408_917_3pUTR_ENSMUSG00000028698_ENSMUST00000030464|mouse|control|control (ssRNA)
RNA: GGGAGUUCUACAGUCCGACGAUCAUUAUUUCCUCCCUUCCUCAAAGUCAAUGUAUAAUCCCCCUGCAUUUUCGUUGAGGCAUCACGAACUAAGAAGGUACCAUCUGGCAUGUCCCGCAAUUUGUCAUUUACCUCUUCCCUGGACAACAGAGGAUUGAGCAUCA

target: T1, UNK ZnF1-3; assay: nsRBNS (natural sequence RNA bind-n-seq); RBNS binding buffer (assumed for nsRBNS): 25 mM Tris pH 7.5, 150 mM KCl, 3 mM MgCl2, 0.01% Triton X-100, 500 ug/ml BSA, 20 U/ml SUPERase-In, 4 C; UNK is unkempt and MSI1 is Musashi-1; names of the RNAs are library labels; protein concentration not given here; high values mean tight binding

Binder	binding signal [enrichment R]
B1	0.776
B2	1.09
B3	1.08
B4	1.22
B5	0.874
B6	1.1
B7	0.711
B8	0.749
B9	0.875
B10	1.82
B11	1.31
B12	0.71
B13	2.39
B14	1.01
B15	1.35
B16	0.618
B17	1.85
B18	2
B19	0.782
B20	0.475
B21	0.126
B22	1.34
